This is one part of the list. At the low end of the ranking the order means little.

The text below walks through data of PMC10668032.

The target of this assay is SIX1-Q177R homeodomain (UniProt Q15475). The assay can be described thus: universal protein binding microarray. The note with it: Universal all-10-mer PBM (8x60K, AMADID 030236), 300 nM GST-tagged protein, Alexa Fluor 488 anti-GST; buffer, salt, pH and temperature not stated; high values mean tight binding; most listed sequences are background and not binding sites; double strand, one strand shown.
Take AGGGTTTC: the binding signal amounted to 0.0175 E-score.

Regarding GAGAAGGA, the binding signal was -0.168 E-score. Under ATGGTCTG stands -0.132 E-score; under AAACCATT, -0.178 E-score; under GCAGGCGA, -0.265 E-score. As to ATACACGA, the binding signal was 0.38 E-score.

For the sequence GCAGGACA, the binding signal was determined as 0.00732 E-score. The value for GTAGAGCA was 0.124 E-score; that for ATAGGCAA was -0.228 E-score; that for GCCCCGGA was 0.00914 E-score. The value for AGCTGGGG was 0.118 E-score; that for TAGCCGAA was -0.0879 E-score; that for ATAGTTGA was -0.181 E-score. Turning to AGTTGGAA, the binding signal was -0.167 E-score. In the case of ATGGACCC, the binding signal was determined as 0.144 E-score. With AAGAGTCA, the binding signal was 0.123 E-score. Consider CCACCAGG, for which the binding signal came out at 0.0469 E-score. With CTGGGTAA, the binding signal is -0.0232 E-score. The value for ATCCGCTA was -0.104 E-score; that for ATAAACTA was -0.049 E-score; that for ATATCTCC was 0.00536 E-score. Take GTGATCTA: the binding signal was -0.0668 E-score. The value for ACAAGGAT was 0.0765 E-score; that for GGTGTCAA was 0.49 E-score.

CGGTCTTC: the binding signal is -0.168 E-score. Regarding GTACTCAA, the binding signal is -0.0267 E-score.

In the case of TGAACTCA, the binding signal is -0.11 E-score.

On to GTAATTGA, for which the binding signal stood at 0.0743 E-score. As for GCATAACA, the binding signal was 0.162 E-score. Consider AGGCGTAC, for which the binding signal came out at 0.221 E-score.

For ACCTTATG, the binding signal turned out to be 0.134 E-score.

Regarding ACCGCAAC, the binding signal is 0.1 E-score. Under CAGCCTGA stands -0.0835 E-score; under ACCAGGGC, 0.0523 E-score. Under CGTTAGAC stands -0.0103 E-score. The value for AATTCTGG was -0.117 E-score.

In the case of GCAATAGC, the binding signal came to 0.0186 E-score. Under AAAGCATT stands -0.0558 E-score; under CTCTGATA, -0.0281 E-score; under ATAGTAAG, -0.0952 E-score. On to CACTCTGG, for which the binding signal was 0.187 E-score.

Turning to AGGCGTTA, the binding signal was -0.00583 E-score. Under CACTTTAA stands 0.0809 E-score; under TCGTGAGA, -0.136 E-score. Under ACATGCGT stands -0.23 E-score; under GCATGACA, 0.115 E-score; under CTCGTGGC, -0.234 E-score. For the sequence CGCGACCC, the binding signal was 0.169 E-score. Take GCAAGTAA: the binding signal was -0.149 E-score. TCAATTAA: the binding signal was -0.0664 E-score.

As to ATACGCGA, the binding signal came out at 0.151 E-score. The value for GACTCCCA was 0.067 E-score; that for AGCGGTAG was -0.134 E-score. Consider CATATAAG, for which the binding signal stood at 0.00292 E-score.

ACATCTAG: the binding signal is -0.149 E-score.

In the case of ACACTGGG, the binding signal came out at 0.412 E-score. The value for CATATTAG was -0.0393 E-score; that for GCCAAATA was -0.166 E-score; that for GGCGCAAC was -0.0717 E-score. Take AAAAACCT: the binding signal was -0.0787 E-score. Under CAGAACTC stands -0.0316 E-score. Take ACCAGGTA: the binding signal stood at 0.241 E-score. In the case of AGGGTCGC, the binding signal is -0.014 E-score. The value for GTGATAGA was 0.0102 E-score. The value for AGTTAGTC was -0.0914 E-score. The value for AATGGCGT was 0.0566 E-score; that for AGGTCTCC was -0.142 E-score. Take ATTGCAAA: the binding signal was -0.239 E-score. Under CGCTTGTA stands 0.00364 E-score.

As to CGTAGTAG, the binding signal turned out to be 0.0294 E-score.

Take ATTTCTAC: the binding signal is -0.103 E-score. The value for CGAGAACA was 0.0262 E-score.

Take AACGTTGC: the binding signal was -0.268 E-score.

Turning to GCGCGAGA, the binding signal was -0.117 E-score.

Turning to GGCAAGAC, the binding signal came out at 0.0104 E-score. For the sequence ATACTATC, the binding signal is -0.0242 E-score. The value for AGGAACAA was -0.224 E-score; that for GATCACCA was -0.0262 E-score. On to AGTGCAGC, for which the binding signal was -0.038 E-score. Take AGGCTAAT: the binding signal was -0.162 E-score. Regarding GTTCACTA, the binding signal is -0.166 E-score. Turning to GAGTCAGA, the binding signal amounted to 0.21 E-score. Consider GCTACAGC, for which the binding signal was -0.282 E-score.

As for AAATTCCA, the binding signal was -0.298 E-score. In the case of GTTGTGTA, the binding signal turned out to be 0.255 E-score. Under CACTTGTA stands 0.149 E-score; under CAAAGACA, -0.0206 E-score; under AGGTATCC, 0.344 E-score. CCCAGCAC: the binding signal amounted to 0.0287 E-score. Under AATCGGGT stands 0.0756 E-score; under ACGTGCAC, 0.142 E-score; under CCAGCACC, 0.153 E-score. Consider GGCCGCGA, for which the binding signal is -0.271 E-score. For the sequence GAGCTGAC, the binding signal amounted to 0.0373 E-score.
